The campaign covered roughly 200,000 compounds. About 4,500 (2.2%) were called active. The inconclusive results got no clear call from the source; some entries with a clear call stand among them for comparison. The call rests on the fitted dose curve; in most records, active means well fitted inhibition curve with a large enough effect; inconclusive means small, poorly fitted or top-dose-only effect, or effect the other way; inactive means flat fitted curve, though single readings scatter. Where the call is inconclusive, the potency comes from a doubtful curve fit.
target: Cruzipain (Trypanosoma cruzi) (UniProt P25779); test: qHTS Assay for Promiscuous and Specific Inhibitors of Cruzain (without detergent); conditions: purified cruzain, Z-FR-AMC fluorescence, no detergent; further: nearly all actives have a fitted effect of over 40% in size;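 on max response, negative = inhibition: plate controls were enzyme without inhibitor for no effect and buffer without enzyme for full effect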
Summary of the method: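 Detergent-free condition (0.00005% Triton X-100) in acetate buffer pH 5.5 with DTT. 1.5 nM enzyme and compound were pre-mixed 15 min, then 2 uM Z-FR-AMC substrate added; reaction progress from fluorescence change between first and third reads (60 s).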
Potency means the concentration at half of the fitted maximal effect; tags describe the fitted curve by direction and shape.

Chain of UniProt P25779 (P25779 whole entry, looked up): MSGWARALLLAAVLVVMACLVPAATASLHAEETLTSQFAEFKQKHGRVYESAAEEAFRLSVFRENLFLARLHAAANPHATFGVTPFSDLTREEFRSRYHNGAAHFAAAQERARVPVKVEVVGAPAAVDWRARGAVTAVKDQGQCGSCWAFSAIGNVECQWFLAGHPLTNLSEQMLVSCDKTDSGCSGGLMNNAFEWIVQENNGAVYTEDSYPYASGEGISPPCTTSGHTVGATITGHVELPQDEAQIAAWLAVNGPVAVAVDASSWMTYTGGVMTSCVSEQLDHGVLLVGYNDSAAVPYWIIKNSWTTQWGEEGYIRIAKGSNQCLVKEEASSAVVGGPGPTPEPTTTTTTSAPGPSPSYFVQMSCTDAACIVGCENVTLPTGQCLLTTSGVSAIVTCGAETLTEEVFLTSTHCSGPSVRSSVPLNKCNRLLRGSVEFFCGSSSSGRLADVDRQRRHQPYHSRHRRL

Structure (SMILES) | Potency | max response, negative = inhibition
CCCCCc1c(C)nc(Nc2nc(C)c3cc(OC)ccc3n2)[nH]c1=O | inconclusive: 20 µM [activator, single point] | 
CC(C)OC(=O)c1c(N)n(CCCN2CCOCC2)c2nc3ccccc3nc12 | inconclusive: 31.6 µM [inhibitor, single point] | 
COc1ccccc1N1CCN(C(=O)C2CCN(S(=O)(=O)c3ccc(Cl)cc3)CC2)CC1 | inconclusive: 25.1 µM [activator, partial curve] | 
COc1ccc(C2C(C#N)=C3NC(=O)c4c(sc5c4CCCCC5)N3C3=C2C(=O)CC(C)(C)C3)cc1 (stereo not given) | inconclusive: 31.6 µM [inhibitor, single point] | 
Cc1ccc(C)c(S(=O)(=O)c2nnn3c2nc(N2CCCC2)c2sccc23)c1 | inconclusive: 20 µM [activator, single point] | 
Cc1csc(N(C)C(=O)CSc2nnc(COc3cccc4ccccc34)o2)n1 | inconclusive: 25.1 µM [activator, single point] | 
CCCCn1c(SCC(=O)c2ccc(OC)c(OC)c2)nc2cc(S(N)(=O)=O)ccc21 | inconclusive: 31.6 µM [activator, single point] | 
COc1ccc(NC(=O)c2cc(-c3cccnc3)nc3c(C)c(C)ccc23)c(OC)c1 | inconclusive: 25.1 µM [activator, single point] | 
CCc1cccc2c(C(=O)COC(=O)c3ccc(O)cc3)c[nH]c12 | inconclusive: 39.8 µM [inhibitor, single point] | 
Cc1cc(Cl)c(S(=O)(=O)N2CCN(c3cccc(C)c3C)CC2)cc1OCC(N)=O | inconclusive: 25.1 µM [activator, single point] | 
CCn1nc(-c2ccccc2)nc2c(=O)n(C)c(=O)nc1-2 | active: 1.26 µM | 
O=C(Nc1nc(-c2ccccc2)cs1)C1c2ccccc2Oc2ccccc21 | active: 20 µM | 
O=[N+]([O-])c1cccc(/C=N/n2cnnc2)c1O |  | inactive: -2.24%
Cc1cc(SCC(=O)c2cccs2)n2nc(C)c(-c3ccccc3)c2n1 | inconclusive: 39.8 µM [inhibitor, single point] | 
O=C(N/N=C/C=C\c1ccccc1[N+](=O)[O-])c1cccs1 |  | inactive: -9.87%
O=C1COc2ccc(C(=O)CSc3nnc(-c4cccs4)n3Cc3ccccc3)cc2N1 | inconclusive: 31.6 µM [inhibitor, single point] | 
C=C[C@](C)(O)CCC1C(=C)CC(OC(C)=O)C2C(C)(C)CCCC12C (stereo not given in full) | inconclusive: 12.6 µM [activator, partial curve] | 
CC(=O)Nc1cc(C(=O)N2CCC3(CC2)OCCO3)ccc1Sc1ccc(C)cc1 | inconclusive: 39.8 µM [activator, single point] | 
O=C1NN(c2ccccc2)C(=O)/C1=C/c1cccs1 | inconclusive: 31.6 µM [inhibitor, single point] | 
CCNc1nc(Oc2ccc(OCC(=O)OC)nn2)nc(N2CCOCC2)n1 |  | inactive: 9.39%
Cc1nnc2n(-c3ccc(Cl)cc3)c(=O)c3c4c(sc3n12)CN(C)CC4 |  | inactive: -19.5%
CCc1ccccc1NC(=O)c1cc(-c2cccc(O)c2)on1 | inconclusive: 39.8 µM [inhibitor, single point] | 

Structure (SMILES) | Potency | max response, negative = inhibition
Cc1cc(C)nc(NC(=NCCc2c[nH]c3ccccc23)NC(=O)Nc2ccccc2)n1 | inconclusive: 39.8 µM [inhibitor, single point] | 
Cc1cc(C)c(Nc2cc(S(=O)(=O)O)c(N)c3c2C(=O)c2ccccc2C3=O)c(C)c1 | inconclusive: 3.98 µM [activator, full curve] | 
O=C(Nc1cccn(Cc2c(Cl)cccc2Cl)c1=O)c1ccccc1Cl | inconclusive: 31.6 µM [inhibitor, single point] | 
Cc1cccc(CNc2ccnc(-c3ccccc3Cl)n2)c1 |  | inactive: 17%
Cc1cccc(NC(=O)CSc2nnc(-c3ccc(S(=O)(=O)N4CCOCC4)cc3)n2C)c1 | inconclusive: 25.1 µM [activator, single point] | 
COc1cc(OC)c(NC(=O)c2cnc(N3CCCC3)nc2C)cc1Cl | inconclusive: 31.6 µM [activator, single point] | 
COc1ccc(-c2cc(-c3ccccc3)nc(SCC(=O)Nc3nccs3)c2C#N)cc1 | active: 7.94 µM | 
CCn1c(CNC(=O)COc2ccc(C(C)C)cc2)nnc1SCC(=O)Nc1ccc(F)cc1 | inconclusive: 39.8 µM [activator, single point] | 
O=C1OCCN1C(=O)[C@H]1[C@H](c2ccc([N+](=O)[O-])cc2)C(c2ccc(F)cc2)=NN1c1ccccc1 | inconclusive: 22.4 µM [inhibitor, partial curve, poor fit] | 
CN1C(=O)/C(=C/c2cc(N=Nc3ccccc3)ccc2O)SC1=S | active: 15.8 µM | 
COCCNC(=O)c1c(N)n(CCC2=CCCCC2)c2nc3ccccc3nc12 | inconclusive: 39.8 µM [activator, single point] | 
COc1cc(C(=O)Nc2ccccc2N2CCOCC2)ccc1OCc1c(C)noc1C | inconclusive: 31.6 µM [activator, single point] | 
CCOc1ccccc1N1CCN(C(=O)c2c(-c3ccccc3Cl)noc2C)CC1 | inconclusive: 39.8 µM [activator, single point] | 
CC(=O)c1cccc(Nc2c3c(nc4nc(-c5cccs5)nn24)CCCC3)c1 |  | inactive: -8%
CCCCC(=O)Nc1sc(C(=O)N(CC)CC)c(C)c1C(=O)OC | inconclusive: 25.1 µM [activator, single point] | 
Cc1ccc(C(=O)N2CCN(c3ccc(NC(=O)CSc4ccc(Cl)cc4)cc3)CC2)cc1 |  | inactive: 5.69%
COc1cccc2sc(Nc3nnc(-c4ccccc4Cl)o3)nc12 | inconclusive: 39.8 µM [activator, single point] | 
O=C(CNC(=O)c1ccccc1F)N/N=C/c1cc(Br)ccc1OCc1ccccc1 | inconclusive: 31.6 µM [inhibitor, single point] | 
CC(=O)Nc1cccc(-c2nnc(SCC(=O)c3cc([N+](=O)[O-])ccc3Br)o2)c1 |  | inactive: -17.2%
Cc1cccc2c1-c1sc(C(=O)NCCCN3CCN(c4cccc(Cl)c4)CC3)cc1CO2 |  | inactive: 25.3%
Fc1ccc(-n2ncc3c(Nc4ccc(Oc5ccccc5)cc4)ncnc32)cc1 | inconclusive: 31.6 µM [inhibitor, single point] | 
CCCCC(=O)NC(NC(=O)CCCC)c1ccc(OCC(C)C)c(OC)c1 | inconclusive: 31.6 µM [inhibitor, single point] | 

Structure (SMILES) | Potency | max response, negative = inhibition
NS(=O)(=O)c1ccc(N2N=C(c3ccccc3)CC2c2ccc(F)cc2)cc1 (stereo not given) | inconclusive: 25.1 µM [activator, partial curve] | 
Cc1ccc(OCC(=O)NN=C2c3ccccc3-c3ccccc32)cc1 | inconclusive: 39.8 µM [inhibitor, single point] | 
COc1cccc([C@@H]2Oc3ccc(OC)cc3C[C@H]2OC(=O)N[C@H](C)C2CCCCC2)c1 |  | inactive: -6.46%
COc1ccc(Nc2ncc(C(=O)Nc3cc(C)ccc3OC)c3ccccc23)cc1 | inconclusive: 10 µM [inhibitor, single point] | 
Cc1ccc(-n2nc(C)c3c(C)cc(=O)n(CC(=O)NCc4ccc(OC(C)C)cc4)c32)cc1 |  | inactive: -2.45%
CC(=O)Oc1cc(OC(C)=O)c2c(=O)cc(-c3ccc(OC(C)=O)c(OC(C)=O)c3)oc2c1 | inconclusive: 31.6 µM [inhibitor, partial curve, poor fit] | 
Cc1nc(NC(=O)CSc2nc3cccnc3n2C2CCCCC2)sc1C | inconclusive: 12.6 µM [activator, partial curve] | 
Cc1cc(C=O)c(C)n1-c1ccc(Oc2ccc([N+](=O)[O-])cn2)cc1 |  | inactive: -10.1%
Cc1ccc(/C=C/S(=O)(=O)N2CCC(C(=O)O)CC2)cc1 | inconclusive: 3.16 µM [inhibitor, single point] | 
COc1ccc(F)cc1NC(=O)C1CCN(c2nc(-c3ccc(OC)c(OC)c3)no2)CC1 |  | inactive: -1.43%
O=C(N/N=C/c1cn(-c2ccccc2)nc1-c1cccs1)c1ccc(Cl)cc1 | active: 12.6 µM | 
O=C(NCCc1ccccn1)c1ccc(COc2ccccc2)o1 | inconclusive: 31.6 µM [inhibitor, single point] | 
COc1cc2nc(N3CCN(C(=O)[C@H]4CCCO4)CC3)nc(N)c2cc1OC |  | inactive: -0.0225%
C[C@@]1([C@@H](NC(=O)c2cccs2)c2ccc(-c3ccccc3)cc2)C[C@H]1C1CCCCC1 | active: 7.94 µM | 
Cc1nn2c(=O)cc(COC(=O)c3ccc(NC(=O)c4ccc(C(C)(C)C)cc4)cc3)nc2s1 |  | inactive: -8.72%
COc1ccc([C@H]2[C@H](C(=O)OC(C)(C)C)N3N=Cc4ccccc4C3C23C(=O)c2ccccc2C3=O)c(OC)c1 (stereo not given in full) | inconclusive: 39.8 µM [activator, single point] | 
COc1ccc(C(=O)Nc2c3c(nn2-c2cccc(Cl)c2)CS(=O)C3)cc1 (stereo not given) |  | inactive: -1.65%
CCc1ccc(Cn2c(CNS(=O)(=O)c3ccc(Cl)s3)nc3cccnc32)cc1 |  | inactive: -1.53%
Nc1cc(OC(=O)c2ccco2)nn1S(=O)(=O)c1ccc(F)cc1 | active: 20 µM | 
CSC1=NSC2=NC(=O)/C(=C/c3coc4ccccc4c3=O)C(=N)N12 | inconclusive: 39.8 µM [activator, single point] | 
CCOc1ccc(OCC)c(NC(=O)CSc2nc3c(c(=O)n(C)c(=O)n3C)n2C(C)C)c1 | inconclusive: 31.6 µM [activator, partial curve] | 
